This is an account of results in publication PMC4336329 (PLoS ONE, 2015).

Each structure is given as a SMILES string. The whole screen tested about 310,000 compounds, of which about 2,200 (0.71%) showed an effect of 50% or more. Effects have a minus sign here. The list shows a part of the results.

In the assay the target is human ether-à-go-go-related gene (hERG) potassium channel (human, UniProt Q12809). Briefly: primary screen, population patch clamp on CHO cells stably expressing hERG.
human ether-à-go-go-related gene (hERG) potassium channel, sequence (Q12809 whole entry, looked up): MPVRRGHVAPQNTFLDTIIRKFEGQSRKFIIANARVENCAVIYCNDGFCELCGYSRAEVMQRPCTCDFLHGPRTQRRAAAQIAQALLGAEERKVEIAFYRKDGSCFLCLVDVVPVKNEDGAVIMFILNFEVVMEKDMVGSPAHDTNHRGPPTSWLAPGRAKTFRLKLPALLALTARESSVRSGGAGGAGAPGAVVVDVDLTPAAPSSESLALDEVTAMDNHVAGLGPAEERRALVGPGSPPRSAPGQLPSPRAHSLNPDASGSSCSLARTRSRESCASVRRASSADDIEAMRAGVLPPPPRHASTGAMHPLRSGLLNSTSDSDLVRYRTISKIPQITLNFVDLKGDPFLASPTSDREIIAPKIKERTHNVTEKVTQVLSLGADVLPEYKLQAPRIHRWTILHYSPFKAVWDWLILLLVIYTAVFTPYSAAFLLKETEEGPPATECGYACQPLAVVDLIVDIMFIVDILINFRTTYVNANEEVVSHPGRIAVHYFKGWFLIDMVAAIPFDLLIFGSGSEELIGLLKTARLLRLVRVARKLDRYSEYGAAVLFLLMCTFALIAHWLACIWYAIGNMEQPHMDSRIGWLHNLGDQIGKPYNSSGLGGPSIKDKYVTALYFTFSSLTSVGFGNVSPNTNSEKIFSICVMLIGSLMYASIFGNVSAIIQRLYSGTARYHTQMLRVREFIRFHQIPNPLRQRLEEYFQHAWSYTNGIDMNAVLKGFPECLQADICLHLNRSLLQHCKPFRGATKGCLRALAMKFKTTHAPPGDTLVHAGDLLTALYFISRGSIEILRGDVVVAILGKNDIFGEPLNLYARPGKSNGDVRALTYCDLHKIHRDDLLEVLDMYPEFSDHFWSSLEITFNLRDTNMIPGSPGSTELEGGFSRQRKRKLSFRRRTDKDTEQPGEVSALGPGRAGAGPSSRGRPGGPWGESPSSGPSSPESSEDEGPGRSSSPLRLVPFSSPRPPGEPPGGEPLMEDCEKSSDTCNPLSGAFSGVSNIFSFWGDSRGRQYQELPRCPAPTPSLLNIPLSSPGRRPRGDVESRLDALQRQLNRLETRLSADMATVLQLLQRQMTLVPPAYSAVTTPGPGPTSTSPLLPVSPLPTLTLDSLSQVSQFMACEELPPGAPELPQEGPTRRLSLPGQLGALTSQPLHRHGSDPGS
As to `Cc1cccc2nc(CSc3nnc(N)s3)cn12`, the “hERG current change (%, negative = inhibition) at 1uM” value turned out to be 13.6%.
As for `Cc1ccc(CSc2nnc(C(F)(F)F)n2Cc2ccc(F)cc2)cc1`, the figure is 5.8%; as for `COc1cccc(C2=Nn3c(nnc3-c3ccccc3O)SC2)c1`, 10.5%; as for `Cc1ccccc1NC(=O)c1ccccc1NC(=O)c1ccco1`, 9.7%.
Turning to `COc1ccc(NC(=O)Cn2nnc(C(=O)NCc3cccs3)c2N)cc1`, the “hERG current change (%, negative = inhibition) at 1uM” value worked out at 18.4%.
The same measure for `CC(C)CC(C(=O)NC1CCCCC1)N(Cc1cccs1)C(=O)c1snc(C(N)=O)c1N` (centres unmarked): 7.79%; for `COc1ccc(C(=O)OCC(=O)NC2CCCC2)c(OC)c1OC`: 13.5%; for `O=C(Nc1ccccn1)c1ccc(Br)c(S(=O)(=O)N2CCCC2)c1`: 15.4%.
As for `O=C(c1ccco1)N1CCc2[nH]nc(-c3ccc(Cl)cc3)c2C1`, the figure is 15.5%; as for `O=C(OCCN=C1NS(=O)(=O)c2ccccc21)c1ccncc1`, 6.61%; as for `CC(Oc1ccccc1Cl)C(=O)N(Cc1cccs1)C1CCS(=O)(=O)C1` (centres unmarked), -0.472%.
The same measure for `O=C(Nc1nnc(CCN2CCCCC2)s1)C1CCCCC1`: 8.47%; for `CN(C)c1ccc(-c2nnc(SCC3CCCO3)n2C)cc1` (centres unmarked): 5.94%.
On to `COc1ccccc1N1CCN(C(c2cccs2)C(C)NS(=O)(=O)c2ccccc2)CC1` (centres unmarked), for which the “hERG current change (%, negative = inhibition) at 1uM” value turned out to be 5.1%.
`O=C(CCc1ccccc1)OCC(=O)c1ccc([N+](=O)[O-])cc1`: the “hERG current change (%, negative = inhibition) at 1uM” value is on record as 16.3%.
Take `COc1cc(C(=O)N2CCN(C)CC2)cc(OC)c1OC.Cl`: the “hERG current change (%, negative = inhibition) at 1uM” value is 14.8%.
The same measure for `O=C(CSc1nnnn1C1CCCCC1)N1CCOCC1`: 6.66%; for `Nc1cc(=O)[nH]c(SCc2ccc(Cl)cc2)n1`: -11.4%.
The same measure for `O=C(OCc1ccc(C(=O)c2ccccc2)cc1)c1cccc(-c2nnc(-c3ccccc3)o2)c1`: 4.19%; for `CCOC(=O)[C@@H](C)NS(=O)(=O)N(Cc1ccccc1)[C@H](C(=O)OC)C(C)C`: 13.1%.
As for `Cc1oc(-c2ccc(Cl)cc2)nc1CN1CCCC(C(=O)N2CCN(C(=O)c3ccco3)CC2)C1` (centres unmarked), the figure is -75.1%; as for `CC12C(=O)N(c3cccc(OC(=O)c4ccco4)c3)C(=O)C1C1c3ccccc3C2c2ccccc21` (centres unmarked), 7.96%; as for `N#C/C(C(=O)c1ccccc1)=C1/CCCCCN1`, 15.3%.
As to `COc1ccc(-c2nc(CN(C)C(C)c3ccon3)c(C)o2)c(C)c1C` (centres unmarked), the “hERG current change (%, negative = inhibition) at 1uM” value was found to be 17.2%.
As for `O=c1cccc2n1CC1CC2CN(C(c2ccccc2)c2sc3ncnn3c2O)C1` (centres unmarked), the figure is 15.4%.
Regarding `Cc1cccc(-n2c(/C=C/c3ccccn3)nc3ccccc3c2=O)c1`, the “hERG current change (%, negative = inhibition) at 1uM” value was 15.3%.
For `O=C(O)C1Cc2ccccc2CN1S(=O)(=O)c1ccccc1` (centres unmarked), the “hERG current change (%, negative = inhibition) at 1uM” value stood at 10.8%.
The same measure for `COC(=O)c1ccc2c(=O)n(Cc3ccc4c(c3)OCO4)c(=S)[nH]c2c1`: 13%; for `CCc1ccc2[nH]c(=O)c(CN(CCO)C(=O)NCc3ccccc3)cc2c1`: 8.06%.
Turning to `CCOC(=O)C1CCN(C(=S)Nc2ccccc2)CC1`, the “hERG current change (%, negative = inhibition) at 1uM” value came out at 6.38%.
As for `COc1ccc(CC(=O)N[C@@H](CCSC)c2nc3ccccc3[nH]2)cc1`, the figure is 7.68%; as for `CS(=O)(=O)N(CC(=O)NCc1ccco1)c1ccc2c(c1)OCO2`, -7.78%; as for `Cc1cc(C(=O)N/N=C/c2ccc([N+](=O)[O-])s2)c2ccccc2n1`, 12.2%.
The same measure for `O=C(Nc1cc(Cl)ccc1Cl)C1CC(=O)N(c2ccc(Br)cc2)C1` (centres unmarked): 20.5%.
As for `CCOC(=O)CCCCNC(=O)Nc1ccccc1`, the figure is 17.8%; as for `COc1ccc(O)c(CNn2c(-c3ccc(Br)cc3)nc3ccccc3c2=O)c1`, 4.61%.
In the case of `CCn1nccc1C(=O)Nc1nc2ccccc2n1CCN1CCCCC1`, the “hERG current change (%, negative = inhibition) at 1uM” value was -11.2%.
The same measure for `O=C(CN1CCN(C/C=C/c2ccccc2)CC1)Nc1ccc(F)cc1F`: -87.4%.
The same measure for `CC(C)N(Cc1nccn1C)C(=O)c1cc(COc2ccc(-n3cncn3)cc2)on1`: -18.5%.
As for `CC1CCCCN1C(=O)COC(=O)c1ccc2ccccc2n1` (centres unmarked), the figure is 15%.
In the case of `Cc1cc(OCCn2ccnc2)cc(C)c1Cl`, the “hERG current change (%, negative = inhibition) at 1uM” value is 15%.
The same measure for `O=C(NCc1cccc(Br)c1)c1cc(-c2ccccc2)nn1CC1CC(c2cccc([N+](=O)[O-])c2)=NO1` (centres unmarked): 15%.
For `O=C(/C=N/O)NCCCn1ccnc1`, the “hERG current change (%, negative = inhibition) at 1uM” value worked out at 5.65%.
As for `Cc1ccc2c(c1)c1ncn(Cc3ccc(F)cc3)c(=O)c1n2C`, the figure is 3.07%.
